Source: PMC4336329 (PLoS ONE, 2015)
Screen size: about 310,000 compounds; about 2,200 (0.71%) showed an effect of 50% or more. Effects have a minus sign here. This is one part of the list.

What follows are molecules tested against human ether-à-go-go-related gene (hERG) potassium channel (human, UniProt Q12809) (assay: primary screen, population patch clamp on CHO cells stably expressing hERG).
Chain of human ether-à-go-go-related gene (hERG) potassium channel (Q12809 whole entry, looked up): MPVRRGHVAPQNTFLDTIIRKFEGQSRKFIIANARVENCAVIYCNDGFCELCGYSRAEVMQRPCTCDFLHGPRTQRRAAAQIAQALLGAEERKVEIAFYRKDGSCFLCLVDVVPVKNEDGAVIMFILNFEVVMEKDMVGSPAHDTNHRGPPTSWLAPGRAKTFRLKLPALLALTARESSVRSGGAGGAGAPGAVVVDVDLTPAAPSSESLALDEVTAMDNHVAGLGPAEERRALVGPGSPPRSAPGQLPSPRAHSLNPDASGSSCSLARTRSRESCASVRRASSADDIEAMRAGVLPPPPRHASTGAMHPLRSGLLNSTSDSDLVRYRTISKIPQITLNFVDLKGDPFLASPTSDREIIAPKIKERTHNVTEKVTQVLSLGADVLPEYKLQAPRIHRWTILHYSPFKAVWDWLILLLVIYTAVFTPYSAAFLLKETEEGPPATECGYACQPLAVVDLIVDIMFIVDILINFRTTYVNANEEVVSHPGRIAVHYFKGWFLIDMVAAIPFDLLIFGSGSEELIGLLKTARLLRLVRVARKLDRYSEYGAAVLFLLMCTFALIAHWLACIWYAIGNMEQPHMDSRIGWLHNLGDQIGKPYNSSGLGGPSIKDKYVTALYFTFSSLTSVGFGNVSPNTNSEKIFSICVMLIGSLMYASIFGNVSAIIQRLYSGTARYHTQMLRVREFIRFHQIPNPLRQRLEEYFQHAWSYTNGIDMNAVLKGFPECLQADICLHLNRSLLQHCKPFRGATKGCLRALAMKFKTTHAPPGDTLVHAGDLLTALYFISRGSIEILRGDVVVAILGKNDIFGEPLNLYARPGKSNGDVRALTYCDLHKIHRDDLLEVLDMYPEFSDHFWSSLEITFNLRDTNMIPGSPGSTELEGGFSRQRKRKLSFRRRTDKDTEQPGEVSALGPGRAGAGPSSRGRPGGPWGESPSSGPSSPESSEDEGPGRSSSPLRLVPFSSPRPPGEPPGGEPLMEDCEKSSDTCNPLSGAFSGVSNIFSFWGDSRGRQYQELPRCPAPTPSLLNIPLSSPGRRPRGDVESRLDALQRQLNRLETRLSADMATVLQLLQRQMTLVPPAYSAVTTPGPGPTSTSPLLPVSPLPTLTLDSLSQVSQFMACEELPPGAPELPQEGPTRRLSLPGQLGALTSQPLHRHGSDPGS

SMILES	hERG current change (%, negative = inhibition) at 1uM
O=C(COc1cc(F)ccc1[N+](=O)[O-])Nc1cccc(Br)c1	12.9%
CCCNC(=O)Cc1c(C)n(C(=O)c2ccc(Cl)cc2)c2ccc(OC)cc12	18.6%
O=c1cc(O)c2sc(Nc3ccc(Cl)c(F)c3)nc2[nH]1	16.3%
COc1cccc(CC2(CO)CCCN(CC3=Cc4cc(Cl)ccc4OC3)C2)c1 (stereo not drawn)	6.49%
O=C(NCc1cccs1)c1cc(S(=O)(=O)N2CCOCC2)c(Cl)cc1Cl	-78.4%
Nc1nonc1-n1nnc(C(=O)N/N=C/c2cccc(F)c2)c1-c1ccc2c(c1)OCO2	-6.53%
CC1(C)C2CC=C(/C=N/n3cnnc3)C1C2 (stereo not drawn)	-3.24%
N#CC1=C(N)Oc2cc(N)ccc2C1c1ccc(Cl)cc1 (stereo not drawn)	14.8%
O=[N+]([O-])c1ccc2c(c1Nc1ccccc1)=NC1(CCCCC1)N=2	11.8%
CNC[C@H](O)c1cccc(O)c1.Cl	14.7%
Cn1c(=O)c2c(ncn2CC(=O)N/N=C/C=C/c2ccccc2[N+](=O)[O-])n(C)c1=O	9.68%
CN(C)C1(CNCC(O)c2ccccc2)CCCCC1.O=C(O)C(=O)O (stereo not drawn)	11.3%
CCOC(=O)C(C)Sc1ncc(-c2ccc(Cl)cc2)cn1 (stereo not drawn)	-10.5%
CC(=O)N/C(=C\c1ccccc1)C(=O)OC/C=C/c1ccccc1	10.1%
Nc1nc2nccc(-c3ccc(Cl)cc3)n2n1	6%
CCC(C)NC(=O)COC(=O)c1oc2ccccc2c1CSc1ccc(Cl)cc1 (stereo not drawn)	10.1%
CN1C(=O)c2ccccc2N(C)C1c1ccc(F)cc1 (stereo not drawn)	13.1%
CC(C)CCN1C(=O)c2ccc(C(=O)Nc3ccccc3C(=O)O)cc2C1=O	6.59%
CSc1sc(C#N)c2c1/C(=N\O)CCC2	11.9%

SMILES	hERG current change (%, negative = inhibition) at 1uM
COc1cc(/C=C/C(=O)c2ccc3c(c2)OCO3)cc(OC)c1OC	7.05%
Cc1cc(C)cc(OCC(=O)NC2=NCCS2)c1	5.88%
Cc1ccc(-c2ccnc(-c3ccc(O)cc3)n2)cc1	17.2%
Cc1ccc(-c2noc(CN(C)C(=O)Nc3ccc(F)cc3)n2)cc1	17.8%
CCN(CC)CCOCCOC(=O)C(CC)(CC)c1ccccc1	6.15%
C=CCOC(=O)C1=C[C@@H](c2ccccc2)[C@H](CCCO)[C@@H](OCC)O1	9.37%
COc1ccc(C(=O)/C=C/c2cc(OC)c(O)c(OC)c2)c(F)c1	3.59%
Cc1ccccc1CSc1nnc(NC(=O)Cc2cccs2)s1	9.22%
COC(=O)c1ccc(-n2c(CCC(=O)O)ccc2-c2ccc(C)cc2)cc1	9.78%
CCCCc1nnc(NC(=O)C(C)Sc2nc(O)c(Cc3ccccc3)c(=O)[nH]2)s1 (stereo not drawn)	11.1%
COc1cc2cnncc2cc1OC	7%
O=Cc1c(C(=O)O)n(Cc2ccccc2F)c2ccccc12	13%
CCCCCn1c(N2CCOCC2)nc2c1c(=O)n(CC(N)=O)c(=O)n2C	0.163%
Cc1cc(C)cc(NS(=O)(=O)c2cnc(Cl)c(Cl)c2)c1	8.7%
O=S(=O)(Nc1ncccn1)c1ccc(NC(=S)N2CCN(Cc3ccc(F)cc3Cl)CC2)cc1	21.2%
CCC(=O)c1ccc(OC(=O)Cc2ccc(OC)cc2)cc1	17.1%
CCOC(=O)C1(Cc2ccccc2)CCN(Cc2cccn2-c2cccnc2)CC1	1.67%
COc1ccc(C2Nc3ccccc3C(=O)N2Cc2ccco2)cc1COc1ccccc1F (stereo not drawn)	5.97%
O=C(NC(=S)Nc1cccc2cc(O)ccc12)c1ccco1	10.9%

SMILES	hERG current change (%, negative = inhibition) at 1uM
Cc1ccc(NC(=O)c2ccc([N+](=O)[O-])o2)cc1S(=O)(=O)N1CCOCC1	-1.06%
COc1ccc(NC(=O)COC(=O)CO/N=C(\C)c2ccc3c(c2)OCO3)cc1S(N)(=O)=O	4.37%
COc1cc(/C=N/NC(=O)CCC(=O)Nc2ccc(Br)cc2)ccc1O	8.45%
O=C1CNC(=O)N1CC(O)Cn1c2ccccc2c2ccccc21 (stereo not drawn)	11.5%
COc1cc(CNc2ccc(O)cc2)cc(Br)c1OCc1ccccc1F	10.1%
c1ccc(CCCc2nc(-c3ccccn3)no2)cc1	12.9%
C=CCNC(=O)C(=O)NCCCN1CCOCC1	8.34%
CCN(c1ccccc1)S(=O)(=O)c1ccc(OC)c(NC(=O)C2CC(=O)N(Cc3ccccc3)C2)c1 (stereo not drawn)	-0.75%
Cc1c(CC(=O)NCCCO)c(=O)oc2cc3c(cc12)CCC(C)(C)O3	16.8%
Cc1ccccc1Nc1c([N+](=O)[O-])ccc2c1=NC1(CCCCC1)N=2	-0.0666%
O=C(Nc1ccccc1Cl)NC1(C(=O)N2CCCCC2)CCCCC1	21.5%
Cc1ccccc1N(Cc1nnc2n1CCCCC2)C(=O)Nc1ccccc1	18.9%
Cc1ccc(NC(=O)C2CC(=O)NC(Nc3cccc(C)c3)=N2)cc1 (stereo not drawn)	16.5%
COCCNC(=O)c1cc(-c2ccc(-c3ccccc3)cc2)nc2ccccc12	5.89%
COCCOC1CCN(C(=O)C2CCC(=O)N(CCc3ccccc3)C2)CC1 (stereo not drawn)	15.1%
CC(C)(C)c1ccc(NC(=O)CSc2n[nH]c(=O)n2-c2cccnc2)cc1	17.6%
CCOC(=O)c1sc2nc3c(SCC(=O)O)cc(C(=O)c4ccccc4O)cn3c(=O)c2c1C	1.09%
CCC(C)Oc1ccc(/C=C/c2[nH]c(=O)[nH]c(=O)c2[N+](=O)[O-])cc1OC (stereo not drawn)	-4.41%
O=[N+]([O-])c1ccc(-c2csc(NN=C3CCCC3)n2)cc1	16.3%
